# Laboratory results as given in PubChem BioAssay AID445 (National Center for Advancing Translational Sciences (NCATS), 2006).
# In all, about 110,000 compounds went through this assay and about 40 (0.04%) were called active. Inconclusive means that the source gave no clear call. Such entries were picked first, then a sample of the others. Calls follow the shape of the dose curve; as a rule, active = well fitted curve in the direction sought with a large enough effect in the signal ratio (not every such curve was filed as active); inconclusive = small, poorly fitted or top-dose-only effect, or a change in a side signal; inactive = flat fitted curve, though single readings scatter; the % refers to the signal ratio. A potency beside an inconclusive call is a rough fit, not a confirmed value.
# Assay: IkB Signaling;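 as to IkBa stabilization activation: 0% = basal untreated cells and 100% = reference inhibitor full response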
# Conditions: ABC-DLBCL IkBa-CBG/CBR dual luciferase ratio (green luciferase fused to IkBa over red control in OCI-Ly3 lymphoma cells), 4 h; IkBa stabilization activation: at 57.1 µM (top of the series), scaled: untreated 0%, proteasome inhibitor 100% unless noted
# Summary of the method: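 Luminescence ratio of IκBα-fused green versus native red beetle luciferase in OCI-Ly3 cells, 4 h post-doxycycline with compound; red signal alone, scaled from basal (0%) to zero light (-100%), flagged nonspecific or cytotoxic effects.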
# Potency is read from the fitted curve at half-maximal effect.
Structure (SMILES),IkBa stabilization activation,Potency
Cc1cccc(C)c1Nc1c(-c2ccccc2F)nc2cccc(C)n12,inconclusive: 2.61% [signal inhibitor],–
CCOc1ccc(C(=O)/C=C/c2cn(CC(O)CN3CCCCCC3)c3ccccc23)cc1 (centres undefined),inconclusive: -4.09% [signal inhibitor],–
O=C(c1ccc(N2CCOCC2)cc1)c1cccs1,–,"inconclusive: 25.1 µM [signal inhibitor, partial curve]"
COc1ccc(-c2cc(CCCC(=O)NCc3ccccn3)no2)cc1,inactive: -0.515%,–
CCc1nnc(NC(=O)c2nc(S(=O)(=O)Cc3ccc(C)cc3)ncc2Cl)s1,inconclusive: 0.67% [signal inhibitor],–
COc1ccc(NC(=O)c2cccc(NC(=O)c3ccco3)c2)c(OC)c1,inconclusive: 0.0835% [signal inhibitor],–
COC(=O)c1ccc(CSc2nc(-c3ccco3)cc(C(F)(F)F)n2)o1,inconclusive: 9.62% [signal inhibitor],–
Nc1nc(-c2c[nH]c3ccccc23)cs1,inconclusive: 17.6% [signal inhibitor],–
CCOC(=O)CC(NC(=O)CCc1c(C)nc2c(c(C)nn2-c2ccc(C)c(C)c2)c1C)c1ccc(C)cc1 (centres undefined),inconclusive: 0.213% [signal inhibitor],–
C/C=C\C(=O)N(CC)c1ccccc1C,"inactive: 0.137% [at 25.6 µM, scaled: untreated 0%, proteasome inhibitor 100%]",–
Cc1cccc(-n2ncc(C(=O)N3CCN(C4CCCCC4)CC3)c2C2CCN(C(=O)OC(C)(C)C)CC2)c1,inconclusive: 0.851% [signal inhibitor],–
COc1cccc(CNC(=O)Cn2c(=O)ccc3cc(S(=O)(=O)N4CCC(C)CC4)ccc32)c1,inactive: 2.24%,–
COC(=O)c1ccc(Cn2cnc3c(cnn3-c3ccc(Cl)cc3)c2=O)o1,inactive: 2.23%,–
COc1cccc(C(=O)NCc2ccc3c(c2)CCN3C(=O)c2ccncc2)c1,inconclusive: 0.606% [signal inhibitor],–
CC(C)[C@H](N=Cc1ccccc1O)C(=O)O,"inactive: -0.764% [at 11.4 µM, scaled: untreated 0%, proteasome inhibitor 100%]",–
CCOC(=O)Cc1csc(NC(=O)c2cccc(OC)c2)n1,–,"inconclusive: 20 µM [signal inhibitor, partial curve]"
CCNc1nc(NC(C)C)nc(Nn2cnnc2)n1,inactive: 0.088%,–
COc1ccccc1-c1nc(SCC(=O)c2ccccc2)n[nH]1,–,"inconclusive: 31.6 µM [signal inhibitor, partial curve]"
COc1ccc(-c2[nH]c(-c3cccc(OC)c3)nc2SCC(=O)Nc2ccc3c(c2)OCO3)cc1,inconclusive: 0.984% [signal inhibitor],–
CCN(c1cccc(C)c1)S(=O)(=O)c1ccc(N2CCCCS2(=O)=O)cc1,inactive: -1.05%,–
COCCNc1ncnc2ccc(-c3ccccc3C(F)(F)F)cc12,"inactive: 3.26% [at 11.4 µM, scaled: untreated 0%, proteasome inhibitor 100%]",–
COc1ccccc1C(=O)Oc1c(Sc2ccccc2)c(C)nn1C(C)(C)C,inconclusive: 3.81% [signal inhibitor],–

Structure (SMILES),IkBa stabilization activation,Potency
COc1ccc(-c2c3c(=O)n(C)c(=O)n(C)c3c3n2-c2ccccc2NC3c2ccc(OC)cc2)cc1 (centres undefined),inconclusive: 0.65% [signal inhibitor],–
Cc1ccc(NC(=O)c2cc(S(=O)(=O)N(C)C3CCCCC3)ccc2F)cc1C,inconclusive: -0.531% [signal inhibitor],–
c1ccc(-c2ccc(-c3nc(-c4ccncc4)no3)cc2)cc1,inactive: -5.27%,–
COC(=O)c1ccc(CSc2nncn2C)cc1,inconclusive: 4.93% [signal inhibitor],–
O=C(Nc1ccc(C(=O)N2CCN(c3cccc(Cl)c3)CC2)cc1)c1nsc2ccccc12,–,"inconclusive: 15.8 µM [signal inhibitor, partial curve]"
Cc1cc(C)n2nc(SCC(=O)c3cc(C)n(-c4cc(C)on4)c3C)nc2n1,inactive: 3.21%,–
COc1ccccc1-c1cc(C(F)(F)F)nc(S(=O)(=O)CCCC(=O)N2CCCCC2C)n1 (centres undefined),–,"inconclusive: 3.16 µM [signal inhibitor, full curve]"
CSc1cccc(NC(=O)CSc2nc3ccccc3o2)c1,–,"inconclusive: 25.1 µM [signal inhibitor, partial curve]"
CCc1ccc(NCc2cc3cc4c(cc3n(CC(=O)Nc3ccc(Cl)cc3)c2=O)OCO4)cc1,inactive: -0.23%,–
COc1ccccc1CCNC(=O)c1ccc2c(c1)c(C)c(C)n2C,inconclusive: 8.03% [signal inhibitor],–
COc1ccc(NC(=O)CSc2ncc(-c3ccc(Cl)cc3)[nH]2)cc1OC,–,"inconclusive: 25.1 µM [signal inhibitor, partial curve]"
COC(=O)c1ccc(NC(=O)CC2C(=O)N(c3ccc(Cl)cc3)C(=O)N2Cc2cccs2)cc1 (centres undefined),inconclusive: 0.404% [signal inhibitor],–
O=C(OCC(=O)N1CCCCCC1)c1n[nH]c(=O)c2ccccc12,inactive: 0.0345%,–
Cc1cc(S(=O)(=O)Nc2cccc(C(=O)O)c2)c(C)c(S(=O)(=O)c2ccccc2)c1,inconclusive: -0.304% [signal inhibitor],–
Cc1nnc(SCCCN2C(=O)c3ccccc3C2=O)o1,inactive: -1.77%,–
O=C(NC1=NCCS1)c1ccc(-c2ccc(Cl)cc2)o1,inactive: 8.1%,–
CCOC(=O)c1sc(N2C(=O)c3oc4cc(C)c(C)cc4c(=O)c3C2c2cccc(O)c2)nc1C (centres undefined),inconclusive: 2.67% [signal inhibitor],–
Cc1ccc(Cn2c(=O)n(CCCCC(=O)NCCc3ccc(Cl)cc3)c(=O)c3ccccc32)cc1,inconclusive: 2.66% [signal inhibitor],–
CCCCc1c(O)c2ccccc2[nH]c1=O,inactive: -0.167%,–
COc1ccc(-c2nc3cnc(N(C)C)nc3n(C)c2=O)cc1,"inactive: -3.08% [at 11.4 µM, scaled: untreated 0%, proteasome inhibitor 100%]",–
Cc1ccccc1OCCCC(=O)Nc1ccc2c(c1)OCO2,inconclusive: 0.997% [signal inhibitor],–
COc1ccccc1-c1nc(-c2ccc(Br)cc2)no1,–,"inconclusive: 0.158 µM [signal inhibitor, full curve]"
